The whole screen tested about 410,000 compounds, of which about 7,200 (1.8%) were called active. The inconclusive results got no clear call from the source; some entries with a clear call stand among them for comparison. The call rests on the fitted dose curve; in most records, active means well fitted activation curve with a large enough effect; inconclusive means small, poorly fitted or top-dose-only effect, or another doubt; inactive means no such curve, though single readings can be large or run the other way. No potency is given beside an inconclusive call; the fits are too rough.
experiment: qHTS of TDP-43 Inhibitors; details: TDP-43 expressing yeast growth rescue, BacTiter-Glo, 24 h; growth rescue (activation): at 46.1 µM (top of the series) unless noted; further: nearly all actives have a fitted effect of over 50% in size; on growth rescue (activation): % of control where 0% means no effect
Method in brief: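 Yeast expressing TDP-43 (pregrown in raffinose, seeded at OD600=0.02 in galactose medium) exposed to compounds 24 hr at 30 deg C. Growth read by BacTiter-Glo luminescence; rescue of toxicity appears as increased signal.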
Potency means the concentration at half of the fitted maximal effect; tags describe the fitted curve by direction and shape.

Compound	Potency	growth rescue (activation)
Cc1ccccc1NC(=O)Cc1nc(COC(=O)CCC(=O)c2ccccc2)cs1	inconclusive [activator, partial curve]	–
COc1ccc(-c2cc(=O)c3c(O)cc(O)cc3o2)cc1	inconclusive [activator, partial curve, poor fit]	–
COc1ccc(CCNC(=O)NC(C(F)(F)F)C(F)(F)F)cc1OC	–	inactive: -11.6%
CC1CCCN(C(=O)CSc2nc3ncccc3[nH]2)C1 (stereo not drawn)	inconclusive [activator, partial curve]	–
COc1cccc(CC2(CO)CCN(S(=O)(=O)N(C)C)CC2)c1	inconclusive [activator, single point]	–
CCN(CCNC(=O)CC1Oc2ccccc2NC1=O)c1ccccc1 (stereo not drawn)	–	inconclusive: 20.7% [activator]
CC1Cc2ccccc2N1C(=O)CCn1c(=O)sc2ccccc21 (stereo not drawn)	inconclusive [activator, single point]	–
CCCCOC(=O)CCc1nc2ccccc2[nH]c1=O	inconclusive [activator, partial curve]	–
Cc1cc(C)c(CN2CCC(N3CCC(C(=O)NCC4CCCO4)CC3)CC2)cc1C (stereo not drawn)	inconclusive [activator, single point]	–
Cc1ccc(NC(=O)c2ccccc2Br)c(C(=O)c2ccccc2)c1	inconclusive [activator, partial curve]	–
COCCCN(C(=S)Nc1cc(Cl)cc(Cl)c1)C(C)c1ccncc1 (stereo not drawn)	inconclusive [activator, single point]	–
NC(=O)C1CCCN(C(=O)c2ccc(Cl)cc2)C1 (stereo not drawn)	–	inactive: -14.6%
CC(C)OC(=O)CC(=O)CSc1nc2c(c(-c3cccs3)c1C#N)CCC2	inconclusive [activator, partial curve]	–
O=C(c1cc2cc(Cl)ccc2[nH]1)N1CCN(c2ccccn2)CC1	inconclusive [activator, single point]	–
CCC(=O)NC(=S)Nc1ccccc1C(F)(F)F	inconclusive [activator, single point]	–
CCOC(=O)c1cnc(-n2nc(C)cc2C)nc1NC1CCCCC1	inconclusive [activator, partial curve]	–
COc1cccc(N2CCN(Cc3ncc(-c4ccccc4)o3)CC2)c1	inconclusive [activator, full curve]	–
Cc1ccc(-n2c(Cc3ccccc3)nnc2SCc2nc(-c3cccs3)no2)cc1C	inconclusive [activator, partial curve, poor fit]	–

Source: PubChem BioAssay AID652104 (National Center for Advancing Translational Sciences (NCATS), 2013)
